Laboratory results from PubChem BioAssay AID686979 (National Center for Advancing Translational Sciences (NCATS), 2013).
Several values for one entry are separate records, joined by “and”; a condition that tells them apart may be missing. Identical values can stand only once. About 50,000 (12%) of roughly 420,000 compounds were called active. Inconclusive means that the source gave no clear call. Such entries were picked first, then a sample of the others. Calls come from the whole dose curve; as a rule, active = well fitted inhibition curve with a large enough effect; inconclusive = small, poorly fitted or top-dose-only effect; inactive = flat fitted curve, though single readings scatter. Where the call is inconclusive, the potency comes from a doubtful curve fit.

Test: qHTS for Inhibitors of human tyrosyl-DNA phosphodiesterase 1 (TDP1): qHTS in cells in presence of CPT; note: nearly all actives have a fitted effect of over 55% in size
Details: chicken DT40 Tdp1-/-;hTDP1 cells + 20 nM CPT, ATP luminescence, 48 h; activity change, negative = growth inhibition: at 46.2 µM (top of the series) unless noted
Summary of the method: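 Chicken DT40 Tdp1-/- cells stably complemented with human TDP1 were seeded at 400 cells/well in medium containing 20 nM camptothecin, exposed to pin-transferred compounds, and grown at 37 °C for at least 48 hr. Viability was read as ATP luminescence.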
% is set by controls: 0 for no effect and ±100 for the full control effect; potency is the fitted concentration of half-maximal effect; tags give direction and shape of the fitted curve.

Row | SMILES | Potency | activity change, negative = growth inhibition
1 | Cc1ccc(S(=O)(=O)/N=C(/Nc2cccc3ccccc23)c2ccc(F)cc2)cc1 | inconclusive: 25.9 µM [inhibitor, single point] | 
2 | COc1ccc(OC)c(C(=O)c2oc3ccccc3c2NC(C)=O)c1 | active: 23.1 µM | 
3 | COc1ccc2c(c1)c1c(c(=O)n(-c3ccc(C)cc3)c(=O)n1CC(=O)N1CCCC1)n2C | active: 16.4 µM | 
4 | COc1ccc(-c2oc(=O)c3cc(OC)c(OC)cc3c2C#C[C@]2(O)CC[C@H]3[C@@H]4CCc5cc(OC)ccc5[C@H]4CC[C@@]32C)cc1 | inconclusive: 29.1 µM [inhibitor, single point] | 
5 | Cc1nc2ccccc2c(=O)n1CCc1ccccc1 | inconclusive: 29.1 µM [inhibitor, single point] | 
6 | O=C(CSc1oc(-c2ccc(F)cc2)nc1S(=O)(=O)c1ccccc1)NCC1CCCO1 (stereo unspecified) | inconclusive: 20.6 µM [inhibitor, partial curve] | 
7 | Clc1ccc(-c2cc(COc3ccccc3)on2)cc1 |  | inactive: -5.71%
8 | COc1cc(NC(=O)c2ccc(-c3nc(COc4ccccc4)c(C)o3)cc2)cc(OC)c1 | active: 9.2 µM | 
9 | O=C(OCC(=O)N1CCN(C(=O)c2ccco2)CC1)c1ccc(Cl)nc1 |  | inactive: -1.62%
10 | CC(C)[C@H](NS(=O)(=O)c1ccc(Cl)cc1)C(=O)OCC(=O)NCCN1C(=O)CSC1=O |  | inactive: -2.06%
11 | CCCCN(Cc1ccccc1)S(=O)(=O)c1cc(Br)cc2c1N(C(=O)C1CC1)CC2 | active: 9.2 µM | 
12 | Cc1ccc(NC(=O)COC(=O)C2CC3C=CC2C3)cc1S(=O)(=O)N1CCCCC1 (stereo unspecified) | inconclusive: 23.1 µM [inhibitor, single point] | 
13 | Cc1ccc(C(=O)N2CCCCC2)cc1S(=O)(=O)N1CCCC1 |  | inactive: 18.5%
14 | O=C(Nc1ccc2[nH]ncc2c1)c1ccccc1Cl |  | inactive: -14.3%
15 | CCOC(=O)N1CCC(NC(=O)c2ccc3c(c2)N(Cc2ccccc2)C(=O)c2ccccc2S3=O)CC1 (stereo unspecified) |  | inactive: -0.783%
16 | Cc1nn(C)c(Oc2cccc(Cl)c2)c1C#N | inconclusive: 29.1 µM [inhibitor, single point] | 
17 | CCCOc1cccc(C(=O)NCCNC(=O)c2cnccn2)c1 |  | inactive: -15.4%
18 | COc1ccc(N2CCN(C(=O)CN3CCN(c4nc(-c5ccc(F)cc5)cs4)CC3)CC2)cc1 | active: 5.8 µM | 
19 | CC(=O)C1=C(c2ccc(Cl)c(Cl)c2)N(C(C)=O)n2c(nnc2C2CCCCC2)S1 | inconclusive: 4.61 µM [inhibitor, single point] | 
20 | O=C(NCC1CCCO1)c1ccc(CS(=O)(=O)c2ccc(Br)cc2)o1 (stereo unspecified) | inconclusive: 29.1 µM [inhibitor, single point] | 
21 | CCNc1ncc2nc(-c3cccs3)c(=O)n(Cc3ccc(F)cc3)c2n1 |  | inactive: 0.365%
22 | O=C1CC(c2ccc3c(c2)OCCO3)Oc2ccc([N+](=O)[O-])cc21 (stereo unspecified) | inconclusive: 25.9 µM [inhibitor, single point] | 
23 | CC(=O)Nc1cccc(NC(=O)CSc2nc(C3CC3)nc3ccccc23)c1 | active: 4.11 µM | 
24 | COc1ccc(Nc2nc(N3CCOCC3)nc(N3CCOCC3)n2)c(OC)c1 |  | inconclusive: -32.4% [inhibitor]

Row | SMILES | Potency | activity change, negative = growth inhibition
25 | Cc1cccc(OCc2n(CC(=O)OC3CC(C)CCC3C(C)C)c3ccccc3[n+]2C)c1 (stereo unspecified) | active: 5.17 µM | 
26 | COc1ccccc1C(=O)OCC(=O)Nc1cc(S(=O)(=O)N2CCOCC2)ccc1N1CCCC1 | inconclusive: 29.1 µM [inhibitor, single point] | 
27 | Cc1cccc(C)c1NC(=O)CNC(=O)C(NC(=O)c1ccc(C(C)(C)C)cc1)C(C)C (stereo unspecified) | inconclusive: 32.6 µM [inhibitor, single point] | 
28 | O=C1NCCOC(=O)[C@H](Cc2ccc(F)cc2)C/C=C\C[C@H]1CC(=O)N(CCO)Cc1ccccc1 | active: 8.2 µM | 
29 | CC1(C(=O)NCc2ccccc2)CN(S(C)(=O)=O)CC(=O)N1C1CCN(Cc2ccccc2)CC1 (stereo unspecified) |  | inactive: 1.02%
30 | COc1c(OC(C)=O)c(=O)n2c3ccccc3c3ccnc1c32 | inconclusive: 25.9 µM [inhibitor, single point] | 
31 | CCOc1ccccc1C1CC(=O)NC(SCC(=O)Nc2nccs2)=C1C#N (stereo unspecified) | inconclusive: 18.4 µM [inhibitor, single point] | 
32 | Cc1ccc(NS(=O)(=O)c2ccccc2[N+](=O)[O-])cc1C |  | inconclusive: -30% [inhibitor]
33 | Cc1ccccc1/C=N\NC(=O)c1ccccc1-n1cccc1 |  | inactive: 0.402%
34 | Cc1nc2ccccc2nc1N/N=C/c1ccc(O)cc1O | active: 4.61 µM | 
35 | COc1ccccc1C(=O)N1CCN(CCNC(=O)C(=O)Nc2ccc(Br)c(C)c2)CC1 | inconclusive: 20.6 µM [inhibitor, partial curve] | 
36 | CCCN(CC(=O)Nc1cc(Cl)cc(Cl)c1)CC(=O)Nc1ccc(F)c(F)c1F | inconclusive: 20.6 µM [inhibitor, single point] | 
37 | COc1ccc(NC(=S)N(CCCN2CCC(C)CC2)Cc2cccs2)cc1 |  | inactive: -9.72%
38 | CCOC(=O)C1CCCN(C(=O)c2cccc(NC(=O)c3nsc4ccccc34)c2)C1 (stereo unspecified) | active: 20.6 µM | 
39 | C=CCN(C(=O)c1cc(C)cc(C)c1)C1(C(=O)Nc2ccccc2)CCN(C(C)C)CC1 | inconclusive: 14.6 µM [inhibitor, partial curve] | 
40 | O=C(CNc1ccc(C(F)(F)F)cc1[N+](=O)[O-])OCC(=O)c1ccccc1 |  | inactive: -0.432%
41 | C1=Cc2ccccc2Nc2ccccc21 | inconclusive: 29.1 µM [inhibitor, single point] | 
42 | O=C(Nc1ccccc1Cl)c1cc(S(=O)(=O)N2CCC3(CC2)OCCO3)ccc1F | inconclusive: 23.1 µM [inhibitor, single point] and inconclusive: 25.9 µM [inhibitor, single point] | 
43 | COCCCNc1nc2nonc2nc1N(C)CC1CCCN1C (stereo unspecified) |  | inactive: -16.6%
44 | O=C(Nc1ccccc1)Nc1ccc(Nc2ccccc2)cc1 | inconclusive: 14.6 µM [inhibitor, partial curve, poor fit] | 
45 | CNCCCC1c2ccccc2C=Cc2ccccc21 | inconclusive: 12.8 µM [inhibitor, single point] and inconclusive: 18.4 µM [inhibitor, single point] | 
46 | COc1cc(C2C(=O)N(C3CCCCCC3)CC(=O)N2CCC2=CCCCC2)ccc1OC(C)C (stereo unspecified) | active: 18.4 µM | 
47 | COc1cccc(-c2cncnc2NCc2ccc(OC)cc2OC)c1 | inconclusive: 25.9 µM [inhibitor, single point] | 
48 | Cn1c(=O)c(C(=O)Nc2ncccn2)c(O)c2ccccc21 | inconclusive: 20.6 µM [inhibitor, single point] | 

Row | SMILES | Potency | activity change, negative = growth inhibition
49 | NC(Cc1ccc(C(F)(F)F)cc1)c1csc(Nc2ccc(C(=O)NCCCO)cn2)n1 (stereo unspecified) | inconclusive: 29.1 µM [inhibitor, single point] | 
50 | COc1ccccc1N1CCN(C(=O)/C=C/c2c(Cl)nc3ccccn23)CC1 | active: 10.3 µM | 
51 | CCOc1nc(NCCO)nc(Nc2cc(Cl)ccc2OC)n1 | inconclusive: 29.1 µM [inhibitor, single point] | 
52 | CCc1ccc2[nH]c3nc(C)cc(C)c3c(=O)c2c1 |  | inactive: 4.18%
53 | O=C(NCC(=O)N1CCN(C(c2ccccc2)c2ccccc2)CC1)c1ccccc1Br | inconclusive: 18.4 µM [inhibitor, single point] | 
54 | CC(OC(=O)c1nsc(Cl)c1Cl)C(=O)NC1CCCCC1 (stereo unspecified) |  | inactive: -9.61%
55 | CCCCN1Cc2ccccc2Oc2cc(Br)ccc2S1(=O)=O | inconclusive: 23.1 µM [inhibitor, single point] | 
56 | N#Cc1ccccc1NC(=S)NC(=O)c1cccs1 | inconclusive: 11.6 µM [inhibitor, partial curve] | 
57 | CC(C)(C)c1ccc(NC(=O)CON=C(N)c2ccccc2)cc1 | inconclusive: 29.1 µM [inhibitor, single point] | 
58 | Nc1c(C(=O)O)cnc2c(-c3ccc(Cl)cc3)cnn12 |  | inactive: -8.69%
59 | N#Cc1ccc(OCC(O)CN2CCN(CC(O)COc3ccc(C#N)cc3)CC2)cc1 (stereo unspecified) | inconclusive: 29.1 µM [inhibitor, single point] | 
60 | O=C(NC(=S)Nc1ccccc1Br)c1ccc2c(c1)OCO2 |  | inactive: 18.7%
61 | Cc1ccsc1/C=N\NC(=O)c1ccc2c(c1)OCO2 | inconclusive: 0.0073 µM [inhibitor, full curve, poor fit] | 
62 | O=C(NNC(=O)C1CCN(C(=O)Nc2ccccc2)CC1)c1ccc([N+](=O)[O-])cc1 |  | inactive: -4.52%
63 | O=C(Cc1ccccc1)Nc1scc(-c2ccccc2)c1C(=O)N1CCOCC1 | inconclusive: 11.6 µM [inhibitor, partial curve] | 
64 | Cc1ccc(C)c(S(=O)(=O)/N=C(/Nc2ccccc2)c2ccccc2)c1 | inconclusive: 29.1 µM [inhibitor, single point] | 
65 | CCOc1ccc(N(CC)S(=O)(=O)N2CCCC(C(=O)Nc3ccc(OC)c(OC)c3)C2)cc1 (stereo unspecified) | inconclusive: 16.4 µM [inhibitor, single point] | 
66 | O=C1C=CC(=O)c2c(O)c(N3CCN(CCO)CC3)c(Cl)c(O)c21 | active: 0.58 µM | 
67 | Cc1cccn2c(=O)c3cc(C(=O)NC4CCCCC4)c(=N)n(CCN4CCOCC4)c3nc12 | inconclusive: 29.1 µM [inhibitor, single point] | 
68 | COCc1cccc(-c2csc(C(O)c3ccc(OC)cc3)n2)c1 (stereo unspecified) | inconclusive: 14.6 µM [inhibitor, partial curve] | 
69 | O=C(Nc1nc(-c2cccc3ccccc23)cs1)c1cnccn1 |  | inactive: -20.1%
70 | Cc1c(NC(=O)C(C)OC(=O)c2cccc(S(=O)(=O)N(C)C)c2)c(=O)n(-c2ccccc2)n1C (stereo unspecified) |  | inactive: -0.492%
71 | CCCC(=O)Nc1nc2c(ncn2[C@@H]2O[C@H]3COP(=O)(O)O[C@@H]3[C@@H]2OC(=O)CCC)c(=O)[nH]1 |  | inactive: 4.48%
